# Measured values: a collection of fitness landscapes (doi:10.1016/j.celrep.2020.107928)
# Whole data set: some 81,000 sequences, median “one-hybrid fitness for binding parS DNA” near -0.17, cut for the highest 2% near 0.51. The list shows a part of the results.
# B1: Caulobacter ParB omega fusion; a variant is named by its letters at X, in order, B8GW30 (parent)
# chain: MESVVVGEPGMSEGRRGLGRGLSALLGEVDAAPAQAPGEQLGGSREAPIEILQRNPDQPRRTFREEDLEDLSNSIREKGVLQPILVRPSPDTAGEYQIVAGERAWRAAQRAGLKTVPIMVRELDDLAVLEIGIIENVQRADLNVLEEALSYKVLMEKFERTQENIAQTIGKSXSHVANXMRLLXLPDEVQSYLVSGELTAXHARAIAAAADPVALAKQIIEGGLSVRETEALARKAPNLSAGKSKGGRPPRVKDTDTQALESDLSSVLGLDVSIDHRGSTGTLTITYATLEQLDDLCNRLTRGI
# Variants of: B1
# Experiment: one-hybrid fitness for binding parS DNA (scaled: cognate 1, non-cognate 0); higher = stronger binding
# Settings: with parS DNA site
# Summary of the method: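 Fitness here means the log change in variant-to-wild-type read ratio between plasmids sequenced before and after selection. That scale was set so cognate equals 1 and non-cognate equals 0. The selection was a bacterial one-hybrid screen of Caulobacter ParB libraries, four specificity codons randomised, in E. coli USO carrying a HIS3 reporter with the site 19 bp from the promoter, grown 48 hours at 37°C on M9-minus-histidine with 0.1 mM IPTG and 5 mM 3-AT.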
row,Variant,one-hybrid fitness for binding parS DNA
1,GWTC,≤ 0.2
2,IQCV,≤ 0.2
3,SSNP,≤ 0.2
4,PPEG,≤ 0.2
5,NSSG,≤ 0.2
6,TREY,≤ 0.2
7,FQYR,≤ 0.2
8,GQNT,≤ 0.2
9,AYTC,≤ 0.2
10,CLHC,≤ 0.2
11,DKTG,≤ 0.2
12,WENE,≤ 0.2
13,VAIT,≤ 0.2
14,RSVD,≤ 0.2
15,PAWG,≤ 0.2
16,KVRI,≤ 0.2
17,QRTI,≤ 0.2
18,FYMG,≤ 0.2
19,IYER,≤ 0.2
20,VKPP,≤ 0.2
21,VNTE,≤ 0.2
22,CTQP,≤ 0.2
23,DRCR,≤ 0.2
24,HQSI,≤ 0.2

row,Variant,one-hybrid fitness for binding parS DNA
1,RHIL,≤ 0.2
2,ITYY,≤ 0.2
3,LYDA,≤ 0.2
4,SGLN,≤ 0.2
5,TDHS,≤ 0.2
6,FTGV,≤ 0.2
7,IPML,≤ 0.2
8,QNGY,≤ 0.2
9,PRAC,≤ 0.2
10,PGKC,≤ 0.2
11,TVSL,≤ 0.2
12,MRVF,≤ 0.2
13,DYFS,≤ 0.2
14,KSFR,≤ 0.2
15,FLFC,≤ 0.2
16,ARHK,≤ 0.2
17,ATSK,≤ 0.2
18,QSGR,≤ 0.2
19,LMVL,≤ 0.2
20,ERFS,≤ 0.2
21,WITC,≤ 0.2
22,CIQC,≤ 0.2
23,NTGR,≤ 0.2
24,SVDP,≤ 0.2

row,Variant,one-hybrid fitness for binding parS DNA
1,RWQQ,≤ 0.2
2,AERG,≤ 0.2
3,MRYS,≤ 0.2
4,SHGY,≤ 0.2
5,WRDL,≤ 0.2
6,GRRL,≤ 0.2
7,DDLG,≤ 0.2
8,TIRE,≤ 0.2
9,NLDM,≤ 0.2
10,VHNR,≤ 0.2
11,RYQM,0.31
12,YKKT,≤ 0.2
13,HKEG,≤ 0.2
14,TIEP,≤ 0.2
15,REPE,≤ 0.2
16,AKQR,≤ 0.2
17,KKRR,≤ 0.2
18,QYAE,≤ 0.2
19,NGLR,≤ 0.2
20,EADC,≤ 0.2
21,TSEA,≤ 0.2
22,VDIC,≤ 0.2
23,AGPW,≤ 0.2
24,RQAP,≤ 0.2

row,Variant,one-hybrid fitness for binding parS DNA
1,KPRA,≤ 0.2
2,SPHA,≤ 0.2
3,LLGI,≤ 0.2
4,SHSV,≤ 0.2
5,NTDF,≤ 0.2
6,RDPI,≤ 0.2
7,LATN,≤ 0.2
8,THQL,≤ 0.2
9,AGQF,≤ 0.2
10,CTQT,≤ 0.2
11,NQLT,≤ 0.2
12,QSDM,≤ 0.2
13,PPQN,≤ 0.2
14,AGKG,≤ 0.2
15,NAKR,≤ 0.2
16,QEHA,≤ 0.2
17,AKGD,≤ 0.2
18,ERKH,≤ 0.2
19,KTRW,≤ 0.2
20,SVEL,≤ 0.2
21,TGPP,≤ 0.2
22,ARKC,≤ 0.2
23,YKST,≤ 0.2
24,LLNG,≤ 0.2

row,Variant,one-hybrid fitness for binding parS DNA
1,TYQS,≤ 0.2
2,DVGA,≤ 0.2
3,SFVF,≤ 0.2
4,HTDT,≤ 0.2
5,NPWR,≤ 0.2
6,RDGL,≤ 0.2
7,WVSG,≤ 0.2
8,PKSK,≤ 0.2
9,QYAH,≤ 0.2
10,FRAP,≤ 0.2
11,STRH,≤ 0.2
12,TNKA,≤ 0.2
13,RYIM,0.228
14,FMSC,≤ 0.2
15,MCNV,≤ 0.2
16,WAMC,≤ 0.2
17,TAPQ,≤ 0.2
18,SFDS,≤ 0.2
19,IAQI,≤ 0.2
20,QYAR,≤ 0.2
21,RDAK,≤ 0.2
22,RVIN,0.334
23,KYGT,≤ 0.2
24,LDDA,≤ 0.2

row,Variant,one-hybrid fitness for binding parS DNA
1,LGAL,≤ 0.2
2,VTCF,≤ 0.2
3,YGPE,≤ 0.2
4,QANR,≤ 0.2
5,GTHG,≤ 0.2
6,ALNI,≤ 0.2
7,ESMM,≤ 0.2
8,NVVT,≤ 0.2
9,LAHD,≤ 0.2
10,PELM,≤ 0.2
11,TGSH,≤ 0.2
12,LDNR,≤ 0.2
13,YPYT,≤ 0.2
14,MAVI,≤ 0.2
15,WRTV,≤ 0.2
16,EFRV,≤ 0.2
17,QGQT,≤ 0.2
18,NKMC,≤ 0.2
19,EMNC,≤ 0.2
20,SQEG,≤ 0.2
21,IGHR,≤ 0.2
22,THKR,≤ 0.2
23,VELT,≤ 0.2
24,TLML,≤ 0.2

row,Variant,one-hybrid fitness for binding parS DNA
1,VNKC,≤ 0.2
2,CPAL,≤ 0.2
3,SRWL,≤ 0.2
4,CQKG,≤ 0.2
5,LKNE,≤ 0.2
6,HNFL,≤ 0.2
7,NAPC,≤ 0.2
8,CPVD,≤ 0.2
9,TQMF,≤ 0.2
10,RVME,≤ 0.2
11,GNGC,≤ 0.2
12,TVFN,≤ 0.2
13,MISS,≤ 0.2
14,QTVS,≤ 0.2
15,FHRI,≤ 0.2
16,LAFV,≤ 0.2
17,KDGG,≤ 0.2
18,HPKM,≤ 0.2
19,SFFA,≤ 0.2
20,VSNR,≤ 0.2
21,FAPS,≤ 0.2
22,LGTC,≤ 0.2
23,ADVS,≤ 0.2
24,QIAV,≤ 0.2

row,Variant,one-hybrid fitness for binding parS DNA
1,RLAF,0.259
2,LLRM,≤ 0.2
3,LHHN,≤ 0.2
4,KSIS,≤ 0.2
5,TTWF,≤ 0.2
6,RMCG,1.04
7,HQQC,≤ 0.2
8,MAFF,≤ 0.2
9,DYSI,≤ 0.2
10,ITHA,≤ 0.2
11,AVMT,≤ 0.2
12,GIWG,≤ 0.2
13,KTQR,≤ 0.2
14,RPEF,≤ 0.2
15,LSGR,≤ 0.2
16,YNKM,≤ 0.2
17,CRDD,≤ 0.2
18,THET,≤ 0.2
19,LHLN,≤ 0.2
20,SQQD,≤ 0.2
21,TVRN,≤ 0.2
22,VKPR,≤ 0.2
23,CVYC,≤ 0.2
24,LGHD,≤ 0.2

row,Variant,one-hybrid fitness for binding parS DNA
1,QKEP,≤ 0.2
2,ITKS,≤ 0.2
3,QHHF,≤ 0.2
4,SFRM,≤ 0.2
5,GKVY,≤ 0.2
6,LCYT,≤ 0.2
7,SGRY,≤ 0.2
8,NEPR,≤ 0.2
9,LSPA,≤ 0.2
10,ARVF,≤ 0.2
11,TQSL,≤ 0.2
12,HQSM,≤ 0.2
13,IYLN,≤ 0.2
14,CGSR,≤ 0.2
15,TWYT,≤ 0.2
16,SSDW,≤ 0.2
17,RNNE,≤ 0.2
18,SCGC,≤ 0.2
19,TMGY,≤ 0.2
20,EDTS,≤ 0.2
21,TRKN,≤ 0.2
22,KFAP,≤ 0.2
23,CKQR,≤ 0.2
24,IDKT,≤ 0.2

row,Variant,one-hybrid fitness for binding parS DNA
1,RQIV,≤ 0.2
2,KHML,≤ 0.2
3,DAHR,≤ 0.2
4,RVQP,≤ 0.2
5,PLCE,≤ 0.2
6,SLAR,≤ 0.2
7,QQDP,≤ 0.2
8,RADA,0.563
9,IMGS,≤ 0.2
10,KFQG,≤ 0.2
11,ISTM,≤ 0.2
12,NMTH,≤ 0.2
13,DDTS,≤ 0.2
14,TYDV,≤ 0.2
15,VPHL,≤ 0.2
16,WRQT,≤ 0.2
17,DNEL,≤ 0.2
18,RPEM,≤ 0.2
19,CGIG,≤ 0.2
20,TGDT,≤ 0.2
21,TQTD,≤ 0.2
22,CLQT,≤ 0.2
23,AYKV,≤ 0.2
24,AYSE,≤ 0.2

row,Variant,one-hybrid fitness for binding parS DNA
1,SWKV,≤ 0.2
2,SKYC,≤ 0.2
3,ARCR,≤ 0.2
4,RKWV,≤ 0.2
5,SHYR,≤ 0.2
6,KQID,≤ 0.2
7,WLRS,≤ 0.2
8,PEFC,≤ 0.2
9,PNKV,≤ 0.2
10,RRYP,≤ 0.2
11,PSVH,≤ 0.2
12,CFRE,≤ 0.2
13,WALV,≤ 0.2
14,PLGD,≤ 0.2
15,MPKW,≤ 0.2
16,RTHM,0.317
17,EVCT,≤ 0.2
18,GTNG,≤ 0.2
19,YMKS,≤ 0.2
20,DRRV,≤ 0.2
21,ATYT,≤ 0.2
22,VRAY,≤ 0.2
23,RNDK,≤ 0.2
24,LRKW,≤ 0.2

row,Variant,one-hybrid fitness for binding parS DNA
1,QRGE,≤ 0.2
2,CPRA,≤ 0.2
3,SQSA,≤ 0.2
4,MMHC,≤ 0.2
5,RYQW,0.202
6,PGIT,≤ 0.2
7,MSIR,≤ 0.2
8,QSSF,≤ 0.2
9,RVAT,0.916
10,DIQR,≤ 0.2
11,IKWR,≤ 0.2
12,IVYR,≤ 0.2
13,RWTD,≤ 0.2
14,PCVR,≤ 0.2
15,TPAI,≤ 0.2
16,PAQT,≤ 0.2
17,DNYR,≤ 0.2
18,SIVL,≤ 0.2
19,QKHY,≤ 0.2
20,FSVD,≤ 0.2
21,EPRK,≤ 0.2
22,MTMI,≤ 0.2
23,SRVH,≤ 0.2
24,QSDQ,≤ 0.2

row,Variant,one-hybrid fitness for binding parS DNA
1,LMYN,≤ 0.2
2,AGHI,≤ 0.2
3,ATGD,≤ 0.2
4,LPMN,≤ 0.2
5,ASHI,≤ 0.2
6,RKGL,≤ 0.2
7,LMHR,≤ 0.2
8,QPMC,≤ 0.2
9,KTGR,≤ 0.2
10,DHQC,≤ 0.2
11,HPWR,≤ 0.2
12,RLDY,0.451
13,VHDS,≤ 0.2
14,ADWV,≤ 0.2
15,KHRV,≤ 0.2
16,QVEN,0.289
17,GIRR,≤ 0.2
18,QHGV,≤ 0.2
